These results are taken from paper PMC9911399, “Two distinct binding modes provide the RNA-binding protein RbFox with extraordinary sequence specificity”.

Sequences and labels used below:
T1: RBFOX1 RRM (Homo sapiens, UniProt Q9NWB1 109-208)
T1 sequence: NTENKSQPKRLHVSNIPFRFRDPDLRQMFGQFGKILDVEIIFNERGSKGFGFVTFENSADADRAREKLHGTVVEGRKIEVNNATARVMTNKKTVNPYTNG

B1: GGGAACC (DNA:RNA)
RNA: GGGAGACCGGAAUUCAGAUUGUCCGGGAACCUUAAAUCCCGUCGUAGCCACCA
DNA 1: CAATCTGAATTCCGGTCTCCC
DNA 2: TGGTGGCTACGACGGGATT
B2: UUCAAGC (DNA:RNA)
RNA: B1 RNA with G25U, G26U, G27C, C30G
DNA 1: CAATCTGAATTCCGGTCTCCC
DNA 2: TGGTGGCTACGACGGGATT
B3: UCAGCUA (DNA:RNA)
RNA: GGGAGACCGGAAUUCAGAUUGUCCUCAGCUAUUAAAUCCCGUCGUAGCCACCA
DNA 1: CAATCTGAATTCCGGTCTCCC
DNA 2: TGGTGGCTACGACGGGATT
B4: AGAAGUA (DNA:RNA)
RNA: B3 RNA with U25A, C26G, G28A, C29G
DNA 1: CAATCTGAATTCCGGTCTCCC
DNA 2: TGGTGGCTACGACGGGATT
B5: UGAUCAU (DNA:RNA)
RNA: B3 RNA with C26G, G28U, U30A, A31U
DNA 1: CAATCTGAATTCCGGTCTCCC
DNA 2: TGGTGGCTACGACGGGATT
B6: UAUUCUG (DNA:RNA)
RNA: B3 RNA with C26A, A27U, G28U, A31G
DNA 1: CAATCTGAATTCCGGTCTCCC
DNA 2: TGGTGGCTACGACGGGATT
B7: GCGGGCC (DNA:RNA)
RNA: B1 RNA with G26C, A28G, A29G
DNA 1: CAATCTGAATTCCGGTCTCCC
DNA 2: TGGTGGCTACGACGGGATT
B8: CAGAUGA (DNA:RNA)
RNA: B1 RNA with G25C, G26A, A29U, C30G, C31A
DNA 1: CAATCTGAATTCCGGTCTCCC
DNA 2: TGGTGGCTACGACGGGATT
B9: AUACUUU (DNA:RNA)
RNA: B3 RNA with U25A, C26U, G28C, C29U, A31U
DNA 1: CAATCTGAATTCCGGTCTCCC
DNA 2: TGGTGGCTACGACGGGATT
B10: CCUUCGA (DNA:RNA)
RNA: B3 RNA with U25C, A27U, G28U, U30G
DNA 1: CAATCTGAATTCCGGTCTCCC
DNA 2: TGGTGGCTACGACGGGATT
B11: GUGACUA (DNA:RNA)
RNA: B1 RNA with G26U, A29C, C30U, C31A
DNA 1: CAATCTGAATTCCGGTCTCCC
DNA 2: TGGTGGCTACGACGGGATT
B12: AAGAACA (DNA:RNA)
RNA: B1 RNA with G25A, G26A, C31A
DNA 1: CAATCTGAATTCCGGTCTCCC
DNA 2: TGGTGGCTACGACGGGATT
B13: CCAGUUG (DNA:RNA)
RNA: B3 RNA with U25C, C29U, A31G
DNA 1: CAATCTGAATTCCGGTCTCCC
DNA 2: TGGTGGCTACGACGGGATT
B14: GCAUGCA (DNA:RNA)
RNA: B3 RNA with U25G, G28U, C29G, U30C
DNA 1: CAATCTGAATTCCGGTCTCCC
DNA 2: TGGTGGCTACGACGGGATT
B15: GAGCUUA (DNA:RNA)
RNA: B1 RNA with G26A, A28C, A29U, C30U, C31A
DNA 1: CAATCTGAATTCCGGTCTCCC
DNA 2: TGGTGGCTACGACGGGATT
B16: GCUGUAG (DNA:RNA)
RNA: B3 RNA with U25G, A27U, C29U, U30A, A31G
DNA 1: CAATCTGAATTCCGGTCTCCC
DNA 2: TGGTGGCTACGACGGGATT
B17: GACUAAC (DNA:RNA)
RNA: B1 RNA with G26A, G27C, A28U, C30A
DNA 1: CAATCTGAATTCCGGTCTCCC
DNA 2: TGGTGGCTACGACGGGATT
B18: UAGGGGU (DNA:RNA)
RNA: B3 RNA with C26A, A27G, C29G, U30G, A31U
DNA 1: CAATCTGAATTCCGGTCTCCC
DNA 2: TGGTGGCTACGACGGGATT
B19: CAUGCGA (DNA:RNA)
RNA: B3 RNA with U25C, C26A, A27U, U30G
DNA 1: CAATCTGAATTCCGGTCTCCC
DNA 2: TGGTGGCTACGACGGGATT
B20: GCCUGAA (DNA:RNA)
RNA: B3 RNA with U25G, A27C, G28U, C29G, U30A
DNA 1: CAATCTGAATTCCGGTCTCCC
DNA 2: TGGTGGCTACGACGGGATT

Substitutions are numbered along the chain they refer to; changes in the protein carry UniProt numbers. The list shows a part of the results.

This experiment has as its target T1, RBFOX1 RRM. The experiment can be described thus: EMSA; HiTS-Eq, 1 nM pool, 10 min; buffer printed only for the single-RNA assays: 10 mM Tris pH 7.5, 150 mM NaCl, 3.4 mM EDTA, 0.001% NP-40, 30 C. The note with it: tags: His6 N-terminal (pET28a); label: 5' 32P. In a few lines:
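These values rest on relative association constants, computed from read-count changes of each RNA species versus the control reaction and normalised to the cognate motif. Reads came from free RNA recovered by 8% native PAGE after purified RbFox RRM (wild type or mutant) at increasing concentrations was equilibrated for 10 min in 50 µL with 1 nM of a 5′-radiolabelled pool with 7 randomized nucleotides and DNA-annealed flanks.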
(Mobility shift assays separate free from complexed probe on a gel.)
As to B1, the binding signal is 0.0108 KA relative to UGCAUGU.

For the molecule B2, the binding signal is 0.00716 KA relative to UGCAUGU.

Consider B3, for which the binding signal was 0.00618 KA relative to UGCAUGU.

For the molecule B4, the binding signal was 0.00622 KA relative to UGCAUGU.

For B5, the binding signal was 0.0136 KA relative to UGCAUGU.

Regarding B6, the binding signal is 0.016 KA relative to UGCAUGU.

Take B7: the binding signal was 0.0161 KA relative to UGCAUGU.

As to B8, the binding signal was 0.00723 KA relative to UGCAUGU.

For the molecule B9, the binding signal is 0.00354 KA relative to UGCAUGU.

On to B10, for which the binding signal is 0.00851 KA relative to UGCAUGU.

As to B11, the binding signal was 0.0087 KA relative to UGCAUGU.

As for B12, the binding signal is 0.00192 KA relative to UGCAUGU.

With B13, the binding signal is 0.00748 KA relative to UGCAUGU.

Take B14: the binding signal is 0.751 KA relative to UGCAUGU.

On to B15, for which the binding signal is 0.00663 KA relative to UGCAUGU.

On to B16, for which the binding signal is 0.0169 KA relative to UGCAUGU.

Consider B17, for which the binding signal is 0.00459 KA relative to UGCAUGU.

Take B18: the binding signal is 0.00814 KA relative to UGCAUGU.

On to B19, for which the binding signal is 0.0092 KA relative to UGCAUGU.

As for B20, the binding signal was 0.0276 KA relative to UGCAUGU.
